# Laboratory results from patent US20260234290A1, “Antibodies to Stat3 Decoy Oligonucleotide” (The Regents of the University of California, priority 2023, published 2026).
# Test system: CS3D
# Assay: BLI koff of purified Fabs from CS3D biopanning
# Assay type: binding
# Details: measured at 2 μM Fab
# Method: First, standard biopanning (FIG. 1) was performed with Ag immobilized magnetic beads. A total of six rounds were performed with increasing stringency of washes and decreasing amounts of Ag per round. Assuming strong enrichment occurred continuously throughout the campaign, 95 colonies were randomly picked each round 4-6 (285 clones total) for candidate hit screening.
# In efforts to identify improved binders, BIAS was performed with identical clones picked previously that were randomly sequenced. […] Therefore, we hypothesized that strong growth/display propensity biases were a dominant factor during the campaign, leading primarily to the identification of low-affinity binders.
# Fluorescent activated sorting was applied to round 4 as both the population percentage and the normalized MFI of the shoulder population are the highest (FIG. 7). The shoulder population (top ~4%) was sorted along with the majority population (bottom ~96%) and both populations were used to infect TG1 (E. coli) cells. […]
# All buffers were filter sterilized with […] filters prior to preparing samples. […] Kinetic constants of Fabs were determined by Octet RED384 system with continuous shaking at 1000 rpm in RT. […] Data were analyzed using 1:1 interaction model on the ForteBio data analysis software 12.0. […]
molecule,measurement,value
"4E4: anti-CS3D Fab from standard biopanning; VH SEQ ID NO: 1, VL SEQ ID NO: 2 (antibody, V domains shown) VH: [sequence of about 100 residues omitted]GLRYSSGWGQGTMVTVSS VL: QPVLTQPPSVSKGLRQTATLTCSGNSNNVGNAGAVWLQQHQGHPPKLLSYRNNNRPSGISERISASRSGNTASLTISGLQPEDEADYYCSAWDSSLRVQVFGGGTKLTVL",koff,0.111 s⁻¹
